Measurements as given in PMC4336329 (PLoS ONE, 2015).
Out of some 310,000 compounds screened, about 14,000 (4.5%) showed an effect of 50% or more. Effects have a minus sign here. Some of the results follow.

Molecular target: human ether-à-go-go-related gene (hERG) potassium channel (human, UniProt Q12809)
Assay: primary screen, population patch clamp on CHO cells stably expressing hERG
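Also: peak tail current of the secondary pulse compared with the same well before compound.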

human ether-à-go-go-related gene (hERG) potassium channel, sequence (Q12809 whole entry, looked up): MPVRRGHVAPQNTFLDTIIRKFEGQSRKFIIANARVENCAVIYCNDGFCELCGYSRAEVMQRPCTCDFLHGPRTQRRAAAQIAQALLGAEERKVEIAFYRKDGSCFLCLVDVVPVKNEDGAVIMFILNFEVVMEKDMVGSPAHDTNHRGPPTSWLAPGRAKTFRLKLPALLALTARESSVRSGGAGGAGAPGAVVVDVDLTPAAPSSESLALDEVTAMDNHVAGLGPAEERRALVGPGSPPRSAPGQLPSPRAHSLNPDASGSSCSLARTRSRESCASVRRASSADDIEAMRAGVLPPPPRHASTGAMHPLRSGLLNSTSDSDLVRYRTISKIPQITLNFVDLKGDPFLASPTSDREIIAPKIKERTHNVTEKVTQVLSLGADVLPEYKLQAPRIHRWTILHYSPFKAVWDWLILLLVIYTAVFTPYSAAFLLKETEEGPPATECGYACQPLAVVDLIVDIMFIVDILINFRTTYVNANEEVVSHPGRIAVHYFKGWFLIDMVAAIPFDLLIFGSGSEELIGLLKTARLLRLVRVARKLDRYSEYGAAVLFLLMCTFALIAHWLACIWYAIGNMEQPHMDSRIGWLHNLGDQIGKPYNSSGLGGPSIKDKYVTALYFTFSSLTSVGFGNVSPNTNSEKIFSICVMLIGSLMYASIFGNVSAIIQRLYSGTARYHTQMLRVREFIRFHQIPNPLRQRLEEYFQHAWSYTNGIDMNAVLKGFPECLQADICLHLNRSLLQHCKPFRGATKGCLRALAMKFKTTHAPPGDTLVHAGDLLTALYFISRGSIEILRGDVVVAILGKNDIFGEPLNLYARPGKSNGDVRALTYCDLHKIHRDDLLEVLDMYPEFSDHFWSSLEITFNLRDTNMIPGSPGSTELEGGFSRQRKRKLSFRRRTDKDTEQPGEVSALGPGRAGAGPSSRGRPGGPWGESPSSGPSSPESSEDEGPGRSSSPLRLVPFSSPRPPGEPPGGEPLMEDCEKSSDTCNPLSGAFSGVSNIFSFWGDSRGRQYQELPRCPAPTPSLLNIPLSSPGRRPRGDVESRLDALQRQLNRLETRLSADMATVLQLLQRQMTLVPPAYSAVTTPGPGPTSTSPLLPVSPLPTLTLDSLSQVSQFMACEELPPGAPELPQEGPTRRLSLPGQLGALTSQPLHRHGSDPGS

Row | Structure (SMILES) | hERG current change (%, negative = inhibition) at 10uM
1 | CCc1ccc(-n2c(SCC(=O)NC3CCS(=O)(=O)C3)nc3ccccc3c2=O)cc1 (stereo not shown) | -30%
2 | O=C(COc1ccc(Br)cc1Cl)NNC(=O)c1ccccc1 | 2.57%
3 | CCCN(CC1CC1)S(=O)(=O)c1ccc(-n2cnnn2)c(OC)c1 | -21.9%
4 | Cc1ccc(OCCCC(=O)Nc2ccccc2C(F)(F)F)cc1 | 4.29%
5 | CN(Cc1ccccc1)c1nc2c(c(=O)[nH]c(=O)n2C)n1Cc1ccccc1F | 15.7%
6 | Cn1c(=NC(=O)CSCC(=O)N2CCOCC2)sc2ccccc21 | 11%
7 | O=C(Nc1nc2ccccc2[nH]1)c1cccc(F)c1 | 14.3%
8 | O=C(Cn1nnc2ccccc21)N/N=C/c1ccco1 | -1.91%
9 | O=C1/C(=C/c2cccc(F)c2)SC(=S)N1NS(=O)(=O)c1ccccc1 | -41.7%
10 | COc1ccc(NS(=O)(=O)CC23CCC(CC2=O)C3(C)C)cc1 (stereo not shown) | -1.3%
11 | Cc1cccc(OCCN2CCOCC2)c1C | 7.66%
12 | Cc1ccc(N2CC(C(=O)O)CC2=O)cc1 (stereo not shown) | 5.08%
13 | Cc1cc2oc(=O)cc(C)c2c(=O)o1 | -65.8%
14 | O=c1c2c3c(sc2nc2n1N=C(c1cccs1)CS2)CCCC3 | 5.12%
15 | COCCn1nnnc1C(C(C)C)N(Cc1cccnc1)Cc1cc2cc(OC)ccc2[nH]c1=O (stereo not shown) | -29.3%
16 | O=C(CCN1C(=O)/C(=C/c2ccccc2F)SC1=S)NCCCn1ccnc1 | -38.1%
17 | CN1CCN(C(=O)/C=C/c2ccc(Cl)c(Cl)c2)CC1 | -23%
18 | O=S(=O)(NCc1ccccc1)c1ccc(Cl)c(S(=O)(=O)NCc2ccccc2)c1 | -33%
19 | CCOC(=O)c1sc(=NC(=O)/C=C/c2ccccc2)n(C)c1C | 6.02%
20 | COc1ccc(-n2nc(C(=O)N3CCN(Cc4ccc5c(c4)OCO5)CC3)c3ccccc3c2=O)cc1 | -4.87%
21 | O=C(Cn1ncc2c([nH]c3ccccc32)c1=O)NCCc1ccc(Cl)cc1 | 15.3%
22 | CCNC(=S)Nc1ccc2c(c1)oc1ccccc12 | 5.83%
23 | CCOC(=O)c1cccc(NC(=O)c2cnccn2)c1 | -3.79%

Row | Structure (SMILES) | hERG current change (%, negative = inhibition) at 10uM
24 | Cc1ccccc1NC(=O)COC(=O)c1c(-c2ccccc2)noc1C | -4.62%
25 | Cl.N#Cc1cccc(C(c2nnnn2Cc2ccccc2)N2CCCC2)c1 (stereo not shown) | -22.7%
26 | CCC(CC)CN1CCN=C1N(C)C | -4.45%
27 | Cc1ccc(-n2ncc3c(NCCCOC(C)C)ncnc32)c(C)c1 | -2.69%
28 | CCOc1ccc(S(=O)(=O)N2CCCCC2)cc1NC(=O)Cc1ccsc1 | 2.15%
29 | COc1ccc(/C=C2\SC(=O)N(CCC(=O)N3CCN(C)CC3)C2=O)cc1 | -17.7%
30 | COc1ccc(-c2ccccc2)c2oc(-c3ccco3)cc(=O)c12 | 6.83%
31 | CCN(Cc1ccccc1)CC(O)COc1ccccc1.Cl (stereo not shown) | -25.7%
32 | COC(=O)CN1C(=O)Nc2ccc(C)cc2C1c1ccccc1 (stereo not shown) | 14.3%
33 | O=C(Nc1ccc(F)cc1)c1ccc2ncsc2c1 | 3.73%
34 | COc1ccc(NC(=O)CN(C)C(=O)C2=COCCO2)cc1 | 13.4%
35 | CCOc1ccc(CN2CCN(Cc3cc4c(cc3Cl)OCO4)CC2CCO)cc1 (stereo not shown) | -73.3%
36 | Cc1nn(C(C)C(=O)N2CCc3ccccc32)c(C)c1[N+](=O)[O-] (stereo not shown) | 10%
37 | Nc1ncnc2nc(N3CCN(C(=O)c4ccccc4)CC3)[nH]c12 | 1.04%
38 | Cc1cc(Br)ccc1NC(=O)CN(C)Cc1cccs1 | 2.68%
39 | Nc1c(C(=O)NCc2ccccc2)nnn1Cc1ccc(F)cc1 | 17.5%
40 | C=CCn1c(COc2cccc(C)c2)nnc1SCn1nnc2ccccc2c1=O | -5.37%
41 | CC(C)NC(=O)COc1nncc2ccccc12 | 23.9%
42 | COc1ccc(C2=C(C=Nc3c(C)n(C)n(-c4ccccc4)c3=O)C(c3ccccc3C)c3ccccc3O2)cc1OC (stereo not shown) | 11.7%
43 | O=C(CCN1C(=O)CSc2ccccc21)Nc1cccc(C(F)(F)F)c1 | -43.5%
44 | COC(=O)CNC(=O)COC(=O)c1ccc(Cl)nc1 | 51.1%
45 | COc1ccccc1C(=O)NCCC(=O)N(C)CC(=O)Nc1c(Cl)cccc1Cl | -3.13%
46 | OCC1(CCc2ccccc2)CCN(Cc2cccn2-c2cccnc2)CC1 | -49.4%

Row | Structure (SMILES) | hERG current change (%, negative = inhibition) at 10uM
47 | N#Cc1c(C(F)(F)F)cc(-c2ccccc2)nc1SCC(=O)Nc1sc2c(c1C#N)CCC2 | 8.19%
48 | COCCCN1C(=O)C(=O)/C(=C(/O)c2ccc3c(c2)CC(C)O3)C1c1cccnc1 (stereo not shown) | 6.56%
49 | COc1ccc(C(=O)Nc2c(O)ccc3ccccc23)cc1OC | 0.249%
50 | COc1ccc(C2=NOC(C(=O)N3CCOCC3)C2)cc1OC (stereo not shown) | 11.6%
51 | CC(/C=N/n1c(-c2ccco2)n[nH]c1=S)=C\c1ccccc1 | 11.7%
52 | CCN(CC)CCCN1C(=O)C(=O)/C(=C(/O)c2ccc(OC)cc2)C1c1ccco1 (stereo not shown) | 15.6%
53 | Cc1ccc(C(=O)N/C(=C/c2cccs2)C(=O)NCC2CCCO2)cc1 (stereo not shown) | -9.01%
54 | Cc1cccc(NC(=O)CCNC(=O)c2ccc(Br)cc2)c1C | 17.5%
55 | CCOC(=O)N/N=C\c1ccc([N+](=O)[O-])s1 | 5.72%
56 | CN(C(=O)c1ccc2c(c1)C(=O)N(CCC1=CCCCC1)C2=O)C1CCCCC1 | -11.1%
57 | CC(=O)N/C(=C\c1ccccc1)C(=O)OCC(=O)c1ccccc1 | 9.41%
58 | Cc1ccc(C)c(CN2CCCN(Cc3cc(C)ccc3C)S2(=O)=O)c1 | 20.8%
59 | COc1ccc(C(=O)C(CO)Oc2ccccc2OC)cc1OC (stereo not shown) | 5.98%
60 | COc1cccc(C(=O)NCC2CCN(c3ccc(S(=O)(=O)N4CCOCC4)cc3)CC2)c1 | -22.9%
61 | CN(CC(=O)Nc1ccccc1-c1ccccc1)Cc1ccccc1Cl | 28.2%
62 | CCCn1nnnc1SCC(=O)NCc1ccccc1 | 0.33%
63 | CCCOc1ccc(C(=O)c2nc3c(n2O)CCCC3)cc1 | 16.1%
64 | O=C(CSc1nnc(SCc2ccc(Cl)cc2)s1)N/N=C/c1ccccc1Cl | -9.5%
65 | O=C(NCCCN1CCCC1=O)c1ccc(S(=O)(=O)Nc2cccc(C(F)(F)F)c2)cc1 | -5.71%
66 | O=C(OCc1ccc([N+](=O)[O-])cc1)c1cnc(Cl)c(Cl)c1 | 31.8%
67 | CSc1ccc(/C=N/NC(=O)c2cccs2)cc1 | 14.1%
68 | CC1Cc2ccccc2N1C(=S)Nc1cccc(S(=O)(=O)N(C)C)c1 (stereo not shown) | 2.06%
69 | S=c1nc(-c2ccccc2)n(-c2ccccc2)[nH]1 | 16.8%

Row | Structure (SMILES) | hERG current change (%, negative = inhibition) at 10uM
70 | COc1ccc(CNC(=O)[C@]2(C)CCC[C@@]3(C)C4CC[C@@]5(C)C[C@]4(CCC32)CC5=O)cc1 (stereo partly shown) | 10.2%
71 | O=C(c1ccc2nc(N3CCCCC3)sc2c1)N1CCN(c2ccccn2)CC1 | -13.6%
72 | Cc1cc(=O)[nH]c(SCC(N)=O)c1C#N | 8.18%
73 | COc1ccccc1NC(=O)NNC(=O)C(C)Oc1ccc2ccccc2c1 (stereo not shown) | 9.36%
74 | N#C/C(=N/Nc1ccc(OC(F)(F)F)cc1)C(N)=S | -3.33%
75 | COc1ccc(C(=O)NCC(c2ccco2)N2CCc3ccccc32)cc1OC (stereo not shown) | -38.5%
76 | CCCC(=O)NC(c1ccc(OC)cc1)c1c(O)ccc2ccccc12 (stereo not shown) | 19.8%
77 | Cc1ccccc1CN(C)Cc1cc(=O)oc2c(C)c(C)ccc12 | 4.49%
78 | Cc1nnc(C)n1/N=C/c1cc(Br)cc(Br)c1O | 14.1%
79 | Cc1nc(NC(=O)c2c(-c3ccccc3)noc2C)sc1C(=O)N(C)C | 16.7%
80 | COc1ccc(NC(=O)CSc2nc3ccncc3[nH]2)c(OC)c1 | 6.07%
81 | COc1cccc(C(=O)NCC(=O)NCc2cc(=O)n(C)c(=O)n2C)c1 | 15.1%
82 | CCN1CCN(CC(O)COc2ccc(Cl)cc2)CC1.Cl (stereo not shown) | -36.2%
83 | COC(=O)c1cn(NC(=O)c2ccc([N+](=O)[O-])cc2Cl)c(=O)c2ccccc12 | -5.68%
84 | Cc1oc(-c2ccccc2F)nc1CN1CCC(C(=O)NCc2cccnc2)CC1 | -26.7%
85 | COc1cc(-c2nc3ccccc3s2)ccc1O | -3.7%
86 | CCOc1ccc(OCC)c2sc(C)nc12 | 4.86%
87 | Cc1ccc(N2CC(C(=O)OCC(=O)Nc3ccc(F)cc3F)CC2=O)cc1 (stereo not shown) | -14.3%
88 | Cl.N#C/C=C/N1CCN(Cc2ccc3c(c2)OCO3)CC1 | 1.29%
89 | Cn1c(=O)c2c(nc3n2CC(COc2ccccc2)O3)n(C)c1=O (stereo not shown) | 8.98%
90 | O=C(NCC1CCCO1)C1CCC(=O)N1CCc1ccccc1 (stereo not shown) | 2.7%
91 | Cc1c(Oc2cc(NN3CCCCC3)c([N+](=O)[O-])cc2[N+](=O)[O-])cccc1[N+](=O)[O-] | 13.2%
